In article PMC4336329 (PLoS ONE, 2015):
In all, about 310,000 compounds went through this assay and about 14,000 (4.5%) showed an effect of 50% or more. The effect is printed as a negative number. The list shows a part of the results.

biological target: human ether-à-go-go-related gene (hERG) potassium channel (human, UniProt Q12809); test: primary screen, population patch clamp on CHO cells stably expressing hERG
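Note: peak tail current of the secondary pulse compared with the same well before compound.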

Sequence of human ether-à-go-go-related gene (hERG) potassium channel (Q12809 whole entry, looked up): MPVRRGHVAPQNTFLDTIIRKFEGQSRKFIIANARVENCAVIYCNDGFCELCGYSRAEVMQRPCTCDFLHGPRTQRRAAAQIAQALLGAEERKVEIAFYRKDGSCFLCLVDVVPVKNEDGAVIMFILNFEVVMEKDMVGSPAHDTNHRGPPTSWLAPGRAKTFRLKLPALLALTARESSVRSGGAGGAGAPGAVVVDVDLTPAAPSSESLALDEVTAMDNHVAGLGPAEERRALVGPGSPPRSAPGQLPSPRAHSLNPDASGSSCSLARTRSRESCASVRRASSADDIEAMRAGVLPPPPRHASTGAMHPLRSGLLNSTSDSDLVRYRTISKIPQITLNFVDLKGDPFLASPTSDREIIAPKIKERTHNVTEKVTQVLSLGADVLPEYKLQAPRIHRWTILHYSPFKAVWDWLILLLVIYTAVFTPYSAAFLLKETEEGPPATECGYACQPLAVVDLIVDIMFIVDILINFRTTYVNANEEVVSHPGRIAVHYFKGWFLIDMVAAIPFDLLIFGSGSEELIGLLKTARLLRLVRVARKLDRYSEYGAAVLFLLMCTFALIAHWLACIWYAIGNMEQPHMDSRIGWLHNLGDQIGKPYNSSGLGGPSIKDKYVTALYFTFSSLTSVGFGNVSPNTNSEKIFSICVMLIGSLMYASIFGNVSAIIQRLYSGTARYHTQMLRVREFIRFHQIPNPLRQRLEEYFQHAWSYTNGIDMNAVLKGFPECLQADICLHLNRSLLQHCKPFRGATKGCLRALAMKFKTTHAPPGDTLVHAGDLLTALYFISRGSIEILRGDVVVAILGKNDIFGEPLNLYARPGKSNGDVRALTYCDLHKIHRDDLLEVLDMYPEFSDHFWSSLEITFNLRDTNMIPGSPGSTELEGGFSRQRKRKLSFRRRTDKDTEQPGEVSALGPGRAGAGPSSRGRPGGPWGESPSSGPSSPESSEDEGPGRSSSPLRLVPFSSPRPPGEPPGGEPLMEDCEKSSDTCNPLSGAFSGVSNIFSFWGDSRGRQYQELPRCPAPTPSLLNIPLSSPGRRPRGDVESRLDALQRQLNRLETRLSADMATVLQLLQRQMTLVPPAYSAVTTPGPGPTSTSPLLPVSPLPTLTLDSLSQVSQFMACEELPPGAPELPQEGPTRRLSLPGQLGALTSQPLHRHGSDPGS

| SMILES | hERG current change (%, negative = inhibition) at 10uM [%] |
| --- | --- |
| O=C1/C(=C/c2cccs2)SC(=S)N1c1cccc(O)c1 | 11.2 |
| CC(=O)NCCC(=O)Nc1nc(-c2ccc3c(c2)OCCO3)cs1 | -0.193 |
| CCN(C(=O)c1cc2c(=O)[nH]c3ccc(C)cc3c2s1)c1ccccc1F | 13 |
| CCC(=O)Nc1cccc(NC(=O)COc2ccc(OC)cc2)c1 | -6.39 |
| O=C(O)c1cc(O)ccc1N=Nc1ccccc1 | 18.5 |
| O=C(Nc1ccccc1)c1ccc(-n2cnnn2)cc1 | 7.76 |
| CC(C)OC(=O)c1c(NC(=O)CCC(=O)O)sc2c1CCCCC2 | 8.16 |
| CC(=O)NS(=O)(=O)c1ccc(NC(=S)Nc2ccccc2)cc1 | 8.62 |
| COc1cccc(/C=N/NC(=O)C(=O)NCc2cccnc2)c1O | -4.51 |
| CN1CCN(C(=O)C2=C[C@@H](c3ccc(Br)cc3)C[C@@H](OCc3ccc(CO)cc3)O2)CC1 | -39.1 |
| COc1cc(CNc2nnnn2C)cc(OC)c1OC | 13.3 |
| c1ccc(C2OC3c4cccc5cccc(c45)C3N2c2ccccc2)cc1 (centres unmarked) | 10.9 |
| Cc1ccc(/C=C/C(=O)N2CCc3ccccc32)o1 | -7.87 |
| COc1ccc(OC)c(NC(=O)CCS(=O)(=O)c2cc3c(cc2C)NC(=O)CO3)c1 | 3.72 |
| O=c1[nH]c(=O)n([C@H]2C[C@H](O)[C@@H](CO)O2)cc1Br | 12.7 |
| O=C(NCCc1nc2ccccc2[nH]1)/C(=C/c1ccco1)NC(=O)c1ccc(Br)cc1 | -69.9 |
| Cc1ccc(NC(=O)CN(C)Cc2ccc(Cl)cc2)cc1 | -8.48 |
| CCOc1ccc(N2CC(C(=O)Nc3cccc(C(=O)NC4CC4)c3)CC2=O)cc1 (centres unmarked) | 1.39 |
| O=C(O)c1cc(Cl)c(Cl)cc1C(=O)N1CCOCC1 | 10.4 |
| O=C(N/N=C/C=C/c1ccco1)c1ccncc1 | 6.21 |
| CCCN(C(=O)c1cc(C)ccc1C)c1c(N)n(Cc2ccccc2)c(=O)[nH]c1=O | 11.2 |
| O=C(CSc1nc2nccnc2c(=O)n1Cc1cccs1)Nc1ccccc1 | -74.9 |

| SMILES | hERG current change (%, negative = inhibition) at 10uM [%] |
| --- | --- |
| CCCN1CCN(C(=O)CS(=O)(=O)Cc2nc(-c3cccc(OC)c3)oc2C)CC1 | -14.8 |
| O=C(NNC(=O)c1ccc(NC(=O)c2ccccc2)cc1)Nc1ccccc1 | 15 |
| O=C(Cc1ccc(Cl)cc1Cl)NCC1(N2CCOCC2)CCCCC1 | 5.44 |
| CCn1cc(C(=O)NCCCN2CCC(C)CC2)c(=O)c2cc(S(=O)(=O)N3CCOCC3)ccc21 | -17.1 |
| COc1ccc(C(C(=O)NC2CCCC2)N(C(=O)c2snc(C(N)=O)c2N)C2CCCC2)cc1OC (centres unmarked) | 5.77 |
| Cc1ccc(S(=O)(=O)N(C)C)cc1NC(=O)C(C)[N+]12CCN(CC1)CC2.[Cl-] (centres unmarked) | 53.6 |
| S=C(NC1CCCCC1)c1ccc2c(c1)OCO2 | 4.84 |
| CCCS(=O)(=O)c1nc(S(=O)(=O)c2ccc(C)cc2)c(N2CCCC(C)C2)s1 (centres unmarked) | -0.281 |
| O=C(NNC(=O)c1ccccc1[N+](=O)[O-])c1ccco1 | 17.2 |
| O=C(NCc1ccccn1)c1ccc2c(c1)N(Cc1ccccc1)CCS2 | -15.4 |
| COc1ccc(Br)cc1C(=O)Nc1nnn(C)n1 | 3.43 |
| Cc1ccc(C)c(OCC(=O)Nc2nc3ccc([N+](=O)[O-])cc3s2)c1C | 2.02 |
| Cc1c(N2C(=O)SC(CC(=O)O)C2=O)c(=O)n(-c2ccccc2)n1C (centres unmarked) | 3.72 |
| CC(C)OC(=O)c1ccccc1C(=O)c1ccc(N)c([N+](=O)[O-])c1 | 6.68 |
| CCCCN(C)CCCNC(=O)CCn1nc(-c2ccccc2)ccc1=O | -52.9 |
| CC1CCN(C(=O)c2[nH]cnc2C(=O)Nc2nccs2)CC1 | 5.22 |
| Cc1onc(-c2ccccc2)c1C(=O)OCC(=O)NC(=O)c1ccccc1 | -31.1 |
| C=CCn1c(=O)c2c(nc3n2CCCN3CCc2ccc(OC)c(OC)c2)n(C)c1=O | -79.6 |
| COc1ccc(-c2cn(-c3ccc(C)cc3C)c(=S)[nH]2)cc1OC | 0.968 |
| Cc1cc2c(s1)c1cnn(CC(=O)NCCc3ccccc3)c(=O)c1n2C | -9.56 |
| O=C(N/N=C/c1cc([N+](=O)[O-])ccc1O)C1C2CCCCC21 (centres unmarked) | 3.28 |
| Cc1ccc(C)c(N=Nc2ccc(O)c3ncccc23)c1 | 21.3 |
